In all, about 310,000 compounds went through this assay and about 14,000 (4.5%) showed an effect of 50% or more. Effects have a minus sign here. The list shows a part of the results.
What follows are compounds tested against human ether-à-go-go-related gene (hERG) potassium channel (human, UniProt Q12809) (assay: primary screen, population patch clamp on CHO cells stably expressing hERG).
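Further: peak tail current of the secondary pulse compared with the same well before compound.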

Chain of human ether-à-go-go-related gene (hERG) potassium channel (Q12809 whole entry, looked up): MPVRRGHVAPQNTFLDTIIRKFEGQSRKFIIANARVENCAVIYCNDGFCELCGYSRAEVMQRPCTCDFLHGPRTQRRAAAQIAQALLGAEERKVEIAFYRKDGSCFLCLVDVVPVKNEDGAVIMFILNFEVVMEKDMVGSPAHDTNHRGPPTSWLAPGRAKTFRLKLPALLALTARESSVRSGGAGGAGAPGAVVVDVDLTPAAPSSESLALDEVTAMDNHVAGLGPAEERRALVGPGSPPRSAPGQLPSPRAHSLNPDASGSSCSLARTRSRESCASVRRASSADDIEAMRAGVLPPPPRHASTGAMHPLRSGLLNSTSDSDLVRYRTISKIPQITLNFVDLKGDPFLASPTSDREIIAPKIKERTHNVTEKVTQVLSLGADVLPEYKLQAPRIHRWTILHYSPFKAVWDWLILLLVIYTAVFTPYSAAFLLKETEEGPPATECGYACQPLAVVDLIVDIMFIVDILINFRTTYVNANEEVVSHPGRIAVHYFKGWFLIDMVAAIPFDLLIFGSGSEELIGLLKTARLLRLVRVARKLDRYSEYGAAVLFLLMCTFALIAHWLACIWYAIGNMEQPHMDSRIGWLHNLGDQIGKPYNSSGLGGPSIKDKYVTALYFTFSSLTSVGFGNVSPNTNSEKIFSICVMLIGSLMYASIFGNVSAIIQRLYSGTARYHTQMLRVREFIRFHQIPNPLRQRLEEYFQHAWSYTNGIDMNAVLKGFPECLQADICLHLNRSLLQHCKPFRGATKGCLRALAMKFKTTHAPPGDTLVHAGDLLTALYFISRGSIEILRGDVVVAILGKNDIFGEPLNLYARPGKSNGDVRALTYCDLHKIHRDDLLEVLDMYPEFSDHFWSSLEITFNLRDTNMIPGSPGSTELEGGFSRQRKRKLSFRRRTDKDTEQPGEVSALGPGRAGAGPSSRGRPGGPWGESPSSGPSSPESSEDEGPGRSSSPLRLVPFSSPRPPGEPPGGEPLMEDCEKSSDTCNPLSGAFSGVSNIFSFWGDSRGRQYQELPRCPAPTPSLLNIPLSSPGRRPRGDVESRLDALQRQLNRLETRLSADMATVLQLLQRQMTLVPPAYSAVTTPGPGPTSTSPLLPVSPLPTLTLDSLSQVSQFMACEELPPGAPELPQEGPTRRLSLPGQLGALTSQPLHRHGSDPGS

Row | SMILES | hERG current change (%, negative = inhibition) at 10uM [%]
1 | O=C(O)C(=O)O.O=C1CCCN1CCCNCC(=O)N1c2ccccc2Sc2ccccc21 | 2.92
2 | O=S(=O)(c1ccccc1)c1nc(-c2ccccc2)oc1NCc1cccnc1 | 8.28
3 | CN1C(=O)CSc2ccc(NC(=O)NCc3ccco3)cc21 | 0.319
4 | CN(c1ccc(F)cc1)S(=O)(=O)c1ccc2[nH]cc(C(=O)O)c(=O)c2c1 | 13.8
5 | Cc1cccc(-n2cccc2)c1C#N | 2.74
6 | CCO[C@@H]1OC(C(=O)O)=C[C@H](c2ccc(C(F)(F)F)cc2)[C@H]1CCCO | 13.7
7 | COc1ccc(-c2ccc(SCC(=O)Nc3nnc(C)s3)nn2)cc1 | 43.5
8 | COCCCn1c(SC(C)C(=O)NC2CC2)nc2ccccc2c1=O (stereo not shown) | -29.1
9 | Cc1ccccc1-c1nc2ccccc2c(=O)n1C | 10.4
10 | O=C(Cc1ccc(Cl)cc1)OCC(=O)c1ccc[nH]1 | -17.2
11 | O=C(Oc1cccc(NC(=O)c2ccccc2Cl)c1)c1ccc([N+](=O)[O-])cc1 | -16.9
12 | Cc1sc2nc(CSC(C)C(=O)Nc3cc(S(C)(=O)=O)ccc3Cl)[nH]c(=O)c2c1C (stereo not shown) | 12.6
13 | NC(=O)C(c1cccc(Cl)c1)c1ncc(C(F)(F)F)cc1Cl (stereo not shown) | 6.65
14 | COc1cccc2cc(C(=O)NNC(=O)c3ccc(Br)cc3)c(=O)oc12 | 11.7
15 | CC1(C)CCC[C@]2(C)[C@H]3CC(=O)O[C@]3(C)CC[C@@H]12 | 4.64
16 | O=C(CN1C(=O)c2ccccc2S1(=O)=O)NCc1ccccc1 | 8.98
17 | Nc1ncn([C@H]2C[C@H](O)[C@@H](CO)O2)c(=O)n1 | 24.4
18 | CCOCC(=O)N1CCc2ccccc21 | 4
19 | O=C(Nc1cccc(C(F)(F)F)c1)Nc1ccon1 | 10.9
20 | COc1ccc(-c2csc3ncnc(N4CCN(c5ccc(OC)cc5)CC4)c23)cc1 | -11.2
21 | Cc1ccccc1OC(=O)c1cccc(S(=O)(=O)N2CCN(C)CC2)c1 | -30.1
22 | O=C(c1cc(-c2ccccc2)on1)N1CCC2(CC1)OCCO2 | 1.93
23 | COc1ccc2c(c1)OC[C@H]1[C@H]2N2C(=O)c3cc(OC)ccc3NC(=O)[C@@]2(C)[C@H]1c1ccccc1 | 1.82
24 | O=[N+]([O-])c1ccc(C[n+]2cccc3ccc4cccnc4c32)cc1.[Br-] | -62.6
25 | COc1cc2c(cc1NC(=O)CN(C)Cc1ccc(OC)c(OC)c1)oc1ccccc12 | 14.3
26 | O=C(c1cc(F)ccc1F)C1CCCN(Cc2cc(Cl)ccc2O)C1 (stereo not shown) | 0.916
27 | O=C(O)c1cccc(CSc2nc(-c3ccccc3)cc(C(F)(F)F)n2)c1 | 0.347
28 | Cc1ccc(C)c(NC(=O)CCC(=O)N2CCOc3ccccc32)c1 | -8.87

Row | SMILES | hERG current change (%, negative = inhibition) at 10uM [%]
29 | CCSCC1COC(c2cccn2Cc2ccc(C)cc2)=N1 (stereo not shown) | -3.14
30 | Cc1c(NC(=O)c2ccc(S(=O)(=O)N(C)C)cc2)cccc1-n1cnnn1 | 8.65
31 | CC(=O)Nc1ccc(S(=O)(=O)NCCC(=O)OCc2ccccc2F)cc1 | -8.68
32 | CCOC(=O)c1sc2ccc(S(=O)(=O)N3CCOCC3)cc2c1N | 1.25
33 | Cc1c(C(=O)N2CCN(c3ncccn3)CC2)oc2ccc(Cl)cc12 | -23.3
34 | Cc1ccc(S(=O)(=O)Cn2nnnc2CN(Cc2ccco2)CC2CCCO2)cc1 (stereo not shown) | -8.15
35 | CN1C(=O)N(c2cccc3ccccc23)C(n2cncn2)C1(C)C (stereo not shown) | 14.1
36 | CC(C)c1nnc(NC(=O)C2CCN(c3nc4ccccc4s3)CC2)s1 | 9.04
37 | COC(=O)c1ccc(CN2C(=O)NC3(CCC(C)CC3)C2=O)cc1 (stereo not shown) | 25.6
38 | Cc1cccc(NC(=S)N2CCC(NC(=O)c3cccc(F)c3)CC2)c1 | -11.8
39 | COc1ccc(Cl)cc1N(C(=O)c1ccco1)C(C(=O)NC1CCCC1)c1ccncc1 (stereo not shown) | -4.73
40 | O=C(NCc1cccs1)c1nc2c(nnn2Cc2ccccc2Cl)c(=O)[nH]1 | 5.42
41 | CCOCCCNC(=O)C1(O)c2cc(Br)ccc2NC(=O)N1c1ccc(C)c(C)c1 (stereo not shown) | 3.18
42 | O=C(O)c1cccnc1C(=O)c1ccccc1 | 3.79
43 | Cc1[nH]c2ccccc2c1CC#N | 16
44 | O=[N+]([O-])c1ccc(S(=O)(=O)Nc2ccccn2)cc1 | 15.2
45 | CC(C)(C)C1CCc2c(sc(NC(=O)c3cccs3)c2C(=O)N2CCCCC2)C1 (stereo not shown) | 7.32
46 | CC1(c2ccc3noc(-c4ccccc4)c3c2)OCCO1 | 4.9
47 | CCOc1ccc(NC(=O)CCCN2C(=O)C(c3ccccc3)Oc3cccnc32)cc1 (stereo not shown) | 17.5
48 | Oc1ccc2ccccc2c1C=Nc1ccc(N2CCOCC2)cc1 | 3.04
49 | Cc1ccc(S(=O)(=O)N(C)CCCC(=O)Nc2cc(C)ccc2C)cc1 | -29.9
50 | Cc1ccc(/C=N/NC(=O)C(NC(=O)c2ccccc2)c2n[nH]c(=O)c3ccccc23)cc1 (stereo not shown) | -2.54
51 | O=C(CCC(=O)c1ccc(F)cc1)OC1CCOC1=O (stereo not shown) | -8.34
52 | Cn1c(N)c(S(=O)(=O)N2CCN(c3ccccc3F)CC2)c(=O)n(C)c1=O | 8.63
53 | CC1(OC(=O)C2CCCC2)C(=O)C=C2C=C(c3ccsc3)N(Cc3ccccc3)C=C2C1=O (stereo not shown) | -52.5
54 | Cc1ccc(CNC(=O)c2cc3c(s2)CS(=O)(=O)C3)cc1 | 5.77
55 | C#CCN1C(=O)C2(OCCO2)c2ccccc21 | 21.1

Source: publication PMC4336329 (PLoS ONE, 2015)
